Measurements from the supplement of paper PMC4604168 (melanoma cell lines).
Some of the results follow. Single values are uncertain, as repeats are few or missing.

What was measured:
Assay in all cases: cell count relative to DMSO control; melanoma cells; higher = more viable cells
Conditions in all cases: library dose: low library concentration; 72 h
MZ2-MEL = system: MZ2-MEL
MeWo = system: MeWo
RPMI7951 = system: RPMI7951
RVH-421 = system: RVH-421
SkMel28 = system: SkMel28
SkMel2 = system: SkMel2
SkMel30 = system: SkMel30
SkMel5 = system: SkMel5
UACC257 = system: UACC257
UACC62 = system: UACC62
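Also: cell number obtained by counting DAPI-stained nuclei in high-throughput microscope images with image analysis software, screen run in 1,536-well plates.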

Compound: Nc1nc(F)nc2c1ncn2[C@@H]1O[C@H](CO)[C@@H](O)[C@@H]1O [fludarabine] + COc1cc2ncnc(Nc3ccc(Oc4ccccc4)cc3)c2cc1OC [SrcI1] (first compound 0.2 µM, partner dose 2 µM)
- cell count (MZ2-MEL): 98.2%
- cell count (MeWo): 42.8%
- cell count (RPMI7951): 81.6%
- cell count (RVH-421): 114%
- cell count (SkMel28): 93.6%
- cell count (SkMel2): 12.3%
- cell count (SkMel30): 21.2%
- cell count (SkMel5): 69.9%
- cell count (UACC257): 94.9%
- cell count (UACC62): 98.4%

Compound: Nc1ncn([C@H]2C[C@H](O)[C@@H](CO)O2)c(=O)n1 [decitabine] + O=S(=O)(c1ccccc1)N(CC(F)(F)F)c1ccc(C(O)(C(F)(F)F)C(F)(F)F)cc1 [T0901317] (first compound 0.1 µM, partner dose 1.4 µM)
- cell count (MZ2-MEL): 84.4%
- cell count (MeWo): 102%
- cell count (RPMI7951): 98.1%
- cell count (RVH-421): 88.5%
- cell count (SkMel28): 82.7%
- cell count (SkMel2): 104%
- cell count (SkMel30): 99.4%
- cell count (SkMel5): 77.8%
- cell count (UACC257): 113%
- cell count (UACC62): 80.2%

Compound: Nc1ccn([C@@H]2O[C@H](CO)[C@@H](O)C2(F)F)c(=O)n1 [gemcitabine] + Cc1nc(Nc2ncc(C(=O)Nc3c(C)cccc3Cl)s2)cc(N2CCN(CCO)CC2)n1 [dasatanib] (first compound 0.0004 µM, partner dose 0.004 µM)
- cell count (MZ2-MEL): 78.4%
- cell count (MeWo): 92.5%
- cell count (RPMI7951): 73.7%
- cell count (RVH-421): 99.2%
- cell count (SkMel28): 99.5%
- cell count (SkMel2): 84.8%
- cell count (SkMel30): 98.1%
- cell count (UACC62): 87.4%

Compound: CC(=O)O[C@@]12CO[C@@H]1C[C@H](O)[C@@]1(C)C(=O)[C@H](O)C3=C(C)[C@@H](OC(=O)[C@H](O)[C@@H](NC(=O)OC(C)(C)C)c4ccccc4)C[C@@](O)([C@@H](OC(=O)c4ccccc4)[C@H]21)C3(C)C [Docetaxel] + C=CCn1c(=O)c2cnc(Nc3ccc(N4CCN(C)CC4)cc3)nc2n1-c1cccc(C(C)(C)O)n1 [MK1775] (first compound 0.0001 µM, partner dose 0.02 µM)
- cell count (MZ2-MEL): 44.9%
- cell count (MeWo): 46.1%
- cell count (RPMI7951): 29.7%
- cell count (RVH-421): 53.8%
- cell count (SkMel28): 35.7%
- cell count (SkMel2): 43.1%
- cell count (SkMel30): 32.9%
- cell count (SkMel5): 83.2%
- cell count (UACC257): 47.3%
- cell count (UACC62): 42.3%

Compound: Nc1ccn([C@@H]2O[C@H](CO)[C@@H](O)C2(F)F)c(=O)n1 [gemcitabine] + COc1ccc(Cl)c(Nc2nc3ccccc3nc2NS(=O)(=O)c2cccc(NC(=O)C(C)(C)N)c2)c1 [XL147] (first compound 0.0004 µM, partner dose 0.8 µM)
- cell count (MZ2-MEL): 96%
- cell count (MeWo): 102%
- cell count (RPMI7951): 96.1%
- cell count (RVH-421): 112%
- cell count (SkMel28): 117%
- cell count (SkMel2): 102%
- cell count (SkMel30): 107%
- cell count (UACC62): 94.1%

Compound: Nc1ccn([C@@H]2O[C@H](CO)[C@@H](O)C2(F)F)c(=O)n1 [gemcitabine] + C[C@]1(c2nc3c(C(N)=O)cccc3[nH]2)CCCN1 [Veliparib] (first compound 0.0004 µM, partner dose 1.4 µM)
- cell count (MZ2-MEL): 89.7%
- cell count (MeWo): 89.2%
- cell count (RPMI7951): 77.1%
- cell count (RVH-421): 115%
- cell count (SkMel28): 86.7%
- cell count (SkMel2): 105%
- cell count (SkMel30): 80.1%
- cell count (UACC62): 87.9%

Compound: Nc1ncn([C@H]2C[C@H](O)[C@@H](CO)O2)c(=O)n1 [decitabine] + Nc1cccc2c1CN(C1CCC(=O)NC1=O)C2=O [lenalidomide] (first compound 0.1 µM, partner dose 1 µM)
- cell count (MZ2-MEL): 84.6%
- cell count (MeWo): 94.1%
- cell count (RPMI7951): 85.5%
- cell count (RVH-421): 97.4%
- cell count (SkMel28): 88%
- cell count (SkMel2): 114%
- cell count (SkMel30): 107%
- cell count (UACC62): 65.6%

Compound: Nc1nc(F)nc2c1ncn2[C@@H]1O[C@H](CO)[C@@H](O)[C@@H]1O [fludarabine] + Cc1nc(Nc2ncc(C(=O)Nc3c(C)cccc3Cl)s2)cc(N2CCN(CCO)CC2)n1 [dasatanib] (first compound 0.2 µM, partner dose 0.004 µM)
- cell count (MZ2-MEL): 79.5%
- cell count (MeWo): 24.3%
- cell count (RPMI7951): 76.9%
- cell count (RVH-421): 79.9%
- cell count (SkMel28): 60.8%
- cell count (SkMel2): 7.04%
- cell count (SkMel30): 16.7%
- cell count (UACC62): 76.7%

Compound: Nc1ncn([C@H]2C[C@H](O)[C@@H](CO)O2)c(=O)n1 [decitabine] + C#Cc1cccc(Nc2ncnc3cc(OCCOC)c(OCCOC)cc23)c1 [erlotinib] (first compound 0.1 µM, partner dose 0.8 µM)
- cell count (MZ2-MEL): 84.5%
- cell count (MeWo): 91%
- cell count (RPMI7951): 77.5%
- cell count (RVH-421): 90%
- cell count (SkMel28): 79.4%
- cell count (SkMel2): 102%
- cell count (SkMel30): 86.4%
- cell count (UACC62): 72%

Compound: CC(=O)c1c(C)c2cnc(Nc3ccc(N4CCNCC4)cn3)nc2n(C2CCCC2)c1=O [palbociclib] + C[C@]1(c2nc3c(C(N)=O)cccc3[nH]2)CCCN1 [Veliparib] (first compound 0.04 µM, partner dose 1.4 µM)
- cell count (MZ2-MEL): 87.7%
- cell count (MeWo): 74.9%
- cell count (RPMI7951): 67.3%
- cell count (RVH-421): 65.7%
- cell count (SkMel28): 73.4%
- cell count (SkMel2): 83.3%
- cell count (SkMel30): 74.9%
- cell count (UACC62): 64.6%

Compound: CC(=O)c1c(C)c2cnc(Nc3ccc(N4CCNCC4)cn3)nc2n(C2CCCC2)c1=O [palbociclib] + COCC[n+]1c2c(n(Cc3cnccn3)c1C)C(=O)c1ccccc1C2=O [YM155] (first compound 0.04 µM, partner dose 0.0004 µM)
- cell count (MZ2-MEL): 49.9%
- cell count (MeWo): 86%
- cell count (RPMI7951): 78.6%
- cell count (RVH-421): 84.7%
- cell count (SkMel28): 73.2%
- cell count (SkMel2): 76.1%
- cell count (SkMel30): 75.6%
- cell count (UACC62): 80.1%

Compound: CC(=O)O[C@@]12CO[C@@H]1C[C@H](O)[C@@]1(C)C(=O)[C@H](O)C3=C(C)[C@@H](OC(=O)[C@H](O)[C@@H](NC(=O)OC(C)(C)C)c4ccccc4)C[C@@](O)([C@@H](OC(=O)c4ccccc4)[C@H]21)C3(C)C [Docetaxel] + Clc1ccc(Nc2nnc(Cc3ccncc3)c3ccccc23)cc1 [vatalanib] (first compound 0.0001 µM, partner dose 2 µM)
- cell count (MZ2-MEL): 50.1%
- cell count (MeWo): 43.7%
- cell count (RPMI7951): 36.4%
- cell count (RVH-421): 58.4%
- cell count (SkMel28): 42.2%
- cell count (SkMel2): 44.5%
- cell count (SkMel30): 37.2%
- cell count (UACC62): 39.3%

Compound: CC(=O)O[C@@]12CO[C@@H]1C[C@H](O)[C@@]1(C)C(=O)[C@H](O)C3=C(C)[C@@H](OC(=O)[C@H](O)[C@@H](NC(=O)OC(C)(C)C)c4ccccc4)C[C@@](O)([C@@H](OC(=O)c4ccccc4)[C@H]21)C3(C)C [Docetaxel] + COc1ccc(Cl)c(Nc2nc3ccccc3nc2NS(=O)(=O)c2cccc(NC(=O)C(C)(C)N)c2)c1 [XL147] (first compound 0.0001 µM, partner dose 0.8 µM)
- cell count (MZ2-MEL): 49.6%
- cell count (MeWo): 49.7%
- cell count (RPMI7951): 35.7%
- cell count (RVH-421): 81.9%
- cell count (SkMel28): 57.1%
- cell count (SkMel2): 55.9%
- cell count (SkMel30): 33.9%
- cell count (UACC62): 45.1%

Compound: CC(=O)c1c(C)c2cnc(Nc3ccc(N4CCNCC4)cn3)nc2n(C2CCCC2)c1=O [palbociclib] + Cn1nnc2c(C(N)=O)ncn2c1=O [temozolomide] (first compound 0.04 µM, partner dose 2 µM)
- cell count (MZ2-MEL): 90.7%
- cell count (MeWo): 73.6%
- cell count (RPMI7951): 93.6%
- cell count (RVH-421): 87.2%
- cell count (SkMel28): 74.3%
- cell count (SkMel2): 76%
- cell count (SkMel30): 59.5%
- cell count (UACC62): 64.8%

Compound: CC(=O)O[C@@]12CO[C@@H]1C[C@H](O)[C@@]1(C)C(=O)[C@H](O)C3=C(C)[C@@H](OC(=O)[C@H](O)[C@@H](NC(=O)OC(C)(C)C)c4ccccc4)C[C@@](O)([C@@H](OC(=O)c4ccccc4)[C@H]21)C3(C)C [Docetaxel] + C[C@@H](Oc1cc(-c2cnn(C3CCNCC3)c2)cnc1N)c1c(Cl)ccc(F)c1Cl [Crizotinib] (first compound 0.0001 µM, partner dose 0.2 µM)
- cell count (MZ2-MEL): 41.7%
- cell count (MeWo): 54.5%
- cell count (RPMI7951): 43.3%
- cell count (RVH-421): 56.9%
- cell count (SkMel28): 24.9%
- cell count (SkMel2): 41.4%
- cell count (SkMel30): 36%
- cell count (UACC62): 52.4%

Compound: CC(=O)c1c(C)c2cnc(Nc3ccc(N4CCNCC4)cn3)nc2n(C2CCCC2)c1=O [palbociclib] + COc1ccc(Cl)c(Nc2nc3ccccc3nc2NS(=O)(=O)c2cccc(NC(=O)C(C)(C)N)c2)c1 [XL147] (first compound 0.04 µM, partner dose 0.8 µM)
- cell count (MZ2-MEL): 89.2%
- cell count (MeWo): 74.6%
- cell count (RPMI7951): 76.6%
- cell count (RVH-421): 78.5%
- cell count (SkMel28): 94.2%
- cell count (SkMel2): 75.4%
- cell count (SkMel30): 68.2%
- cell count (UACC62): 84.1%

Compound: Nc1ccn([C@@H]2O[C@H](CO)[C@@H](O)C2(F)F)c(=O)n1 [gemcitabine] + CCCS(=O)(=O)Nc1ccc(F)c(C(=O)c2c[nH]c3ncc(Cl)cc23)c1F [PLX4720] (first compound 0.0004 µM, partner dose 0.08 µM)
- cell count (MZ2-MEL): 85.1%
- cell count (MeWo): 97.4%
- cell count (RPMI7951): 86.8%
- cell count (RVH-421): 94.7%
- cell count (SkMel28): 85.5%
- cell count (SkMel2): 93.3%
- cell count (SkMel30): 93.1%
- cell count (UACC62): 71.7%

Compound: Nc1nc(F)nc2c1ncn2[C@@H]1O[C@H](CO)[C@@H](O)[C@@H]1O [fludarabine] + Nc1cccc2c1CN(C1CCC(=O)NC1=O)C2=O [lenalidomide] (first compound 0.2 µM, partner dose 1 µM)
- cell count (MZ2-MEL): 95%
- cell count (MeWo): 24.6%
- cell count (RPMI7951): 101%
- cell count (RVH-421): 96%
- cell count (SkMel28): 67.3%
- cell count (SkMel2): 3.17%
- cell count (SkMel30): 12.3%
- cell count (UACC62): 89.5%

Compound: CC(=O)O[C@@]12CO[C@@H]1C[C@H](O)[C@@]1(C)C(=O)[C@H](O)C3=C(C)[C@@H](OC(=O)[C@H](O)[C@@H](NC(=O)OC(C)(C)C)c4ccccc4)C[C@@](O)([C@@H](OC(=O)c4ccccc4)[C@H]21)C3(C)C [Docetaxel] + Nc1ccn([C@@H]2O[C@H](CO)[C@@H](O)C2(F)F)c(=O)n1 [gemcitabine] (first compound 0.0001 µM, partner dose 0.0004 µM)
- cell count (MZ2-MEL): 49.9%
- cell count (MeWo): 39.1%
- cell count (RPMI7951): 34.8%
- cell count (RVH-421): 56.4%
- cell count (SkMel28): 33.9%
- cell count (SkMel2): 44.8%
- cell count (SkMel30): 39.5%
- cell count (UACC62): 41.5%

Compound: Nc1nc(F)nc2c1ncn2[C@@H]1O[C@H](CO)[C@@H](O)[C@@H]1O [fludarabine] + C#Cc1cccc(Nc2ncnc3cc(OCCOC)c(OCCOC)cc23)c1 [erlotinib] (first compound 0.2 µM, partner dose 0.8 µM)
- cell count (MZ2-MEL): 95.1%
- cell count (MeWo): 32.8%
- cell count (RPMI7951): 93.1%
- cell count (RVH-421): 102%
- cell count (SkMel28): 78.2%
- cell count (SkMel2): 5.95%
- cell count (SkMel30): 24.4%
- cell count (UACC62): 80.7%
